{"source": "the supplement of paper PMC8728848", "binders": {"B1": {"name": "NPA (Narcissus pseudonarcissus), C0HM45 (protein)", "chain": "DNILYSGETLSPGEFLNNGRYVFIMQEDCNLVLYDVDKPIWATNTGGLDRRCHLSMQSDGNLVVYSPRNNPIWASNTGGENGNYVCVLQKDRNVVIYGTARWATGTNIH"}}, "experiment_in_all_cases": "glycan array binding signal (z-score within array); higher = stronger binding", "settings_in_all_cases": "glycan notation: IUPAC condensed, linker removed", "key": {"[1]": {"molecular_target": "Neu5Ac(a2-6)Gal(b1-4)GlcNAc(b1-6)GalNAc", "method_in_brief": "(§1)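 Glycan array data were curated from 3228 arrays in the Consortium for Functional Glycomics database and kept only where the protein sequence was available. Glycan names were converted to IUPAC-condensed notation, and columns mapping to the same glycan were averaged. The binding signal is a within-array Z-score, averaged across arrays of the same protein sequence at different concentrations or buffers and across linkers. Negative Z-scores can be read as non-binding.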"}, "[2]": {"molecular_target": "Neu5Ac(a2-6)Gal(b1-4)GlcNAc(b1-6)[Gal(b1-3)GlcNAc(b1-3)]Gal(b1-4)Glc", "method_in_brief": "as §1"}, "[3]": {"molecular_target": "Neu5Ac(a2-6)Gal(b1-4)GlcNAc(b1-6)[Gal(b1-3)]GalNAc", "method_in_brief": "as §1"}, "[4]": {"molecular_target": "Neu5Ac(a2-6)Gal(b1-4)GlcNAc6S", "method_in_brief": "as §1"}, "[5]": {"molecular_target": "Neu5Ac(a2-6)GalNAc", "method_in_brief": "as §1"}, "[6]": {"molecular_target": "Neu5Ac(a2-6)GalNAc(b1-4)GlcNAc", "method_in_brief": "as §1"}, "[7]": {"molecular_target": "Neu5Ac(a2-6)GalNAc(b1-4)GlcNAc6S", "method_in_brief": "as §1"}, "[8]": {"molecular_target": "Neu5Ac(a2-6)GlcNAc(b1-4)GlcNAc", "method_in_brief": "as §1"}, "[9]": {"molecular_target": "Neu5Ac(a2-6)GlcNAc(b1-4)GlcNAc(b1-4)GlcNAc", "method_in_brief": "as §1"}, "[10]": {"molecular_target": "Neu5Ac(a2-8)Neu5Ac", "method_in_brief": "as §1"}, "[11]": {"molecular_target": "Neu5Ac(a2-8)Neu5Ac(a2-3)Gal(b1-3)GalNAc(b1-4)[Neu5Ac(a2-3)]Gal(b1-4)Glc", "method_in_brief": "as §1"}, "[12]": {"molecular_target": "Neu5Ac(a2-8)Neu5Ac(a2-3)Gal(b1-3)GalNAc(b1-4)[Neu5Ac(a2-8)Neu5Ac(a2-3)]Gal(b1-4)Glc", "method_in_brief": "as §1"}, "[13]": {"molecular_target": "Neu5Ac(a2-8)Neu5Ac(a2-3)Gal(b1-4)Glc", "method_in_brief": "as §1"}, "[14]": {"molecular_target": "Neu5Ac(a2-8)Neu5Ac(a2-3)Gal(b1-4)GlcNAc", "method_in_brief": "as §1"}, "[15]": {"molecular_target": "Neu5Ac(a2-8)Neu5Ac(a2-3)[Gal(b1-3)GalNAc(b1-4)]Gal(b1-4)Glc", "method_in_brief": "as §1"}, "[16]": {"molecular_target": "Neu5Ac(a2-8)Neu5Ac(a2-3)[GalNAc(b1-4)]Gal(b1-4)Glc", "method_in_brief": "as §1"}, "[17]": {"molecular_target": "Neu5Ac(a2-8)Neu5Ac(a2-8)Neu5Ac", "method_in_brief": "as §1"}, "[18]": {"molecular_target": "Neu5Ac(a2-8)Neu5Ac(a2-8)Neu5Ac(a2-3)Gal(b1-4)Glc", "method_in_brief": "as §1"}, "[19]": {"molecular_target": "Neu5Ac(a2-8)Neu5Ac(a2-8)Neu5Ac(a2-3)[Gal(b1-3)GalNAc(b1-4)]Gal(b1-4)Glc", "method_in_brief": "as §1"}, "[20]": {"molecular_target": "Neu5Ac(a2-8)Neu5Ac(a2-8)Neu5Ac(a2-3)[GalNAc(b1-4)]Gal(b1-4)Glc", "method_in_brief": "as §1"}, "[21]": {"molecular_target": "Neu5Ac(a2-8)Neu5Ac(a2-8)Neu5Ac(a2-8)Neu5Ac(a2-3)[GalNAc(b1-4)]Gal(b1-4)Glc", "method_in_brief": "as §1"}, "[22]": {"molecular_target": "Neu5Ac(a2-8)Neu5Gc(a2-3)Gal(b1-4)GlcNAc", "method_in_brief": "as §1"}, "[23]": {"molecular_target": "Neu5Ac(b1-6)GalNAc", "method_in_brief": "as §1"}, "[24]": {"molecular_target": "Neu5Ac(b2-6)Gal(b1-4)GlcNAc", "method_in_brief": "as §1"}, "[25]": {"molecular_target": "Neu5Ac(b2-6)GalNAc", "method_in_brief": "as §1"}, "[26]": {"molecular_target": "Neu5Ac9Ac(a2-3)Gal(b1-3)GlcNAc", "method_in_brief": "as §1"}, "[27]": {"molecular_target": "Neu5Ac9Ac(a2-3)Gal(b1-4)GlcNAc", "method_in_brief": "as §1"}, "[28]": {"molecular_target": "Neu5Ac9Ac(a2-6)Gal(b1-4)GlcNAc", "method_in_brief": "as §1"}, "[29]": {"molecular_target": "Neu5Gc(a2-3)Gal(b1-3)GlcNAc", "method_in_brief": "as §1"}, "[30]": {"molecular_target": "Neu5Gc(a2-3)Gal(b1-3)[Fuc(a1-4)]GlcNAc", "method_in_brief": "as §1"}, "[31]": {"molecular_target": "Neu5Gc(a2-3)Gal(b1-4)Glc", "method_in_brief": "as §1"}, "[32]": {"molecular_target": "Neu5Gc(a2-3)Gal(b1-4)GlcNAc", "method_in_brief": "as §1"}, "[33]": {"molecular_target": "Neu5Gc(a2-3)Gal(b1-4)GlcNAc(b1-3)Gal(b1-4)GlcNAc(b1-2)Man(a1-3)[Neu5Gc(a2-3)Gal(b1-4)GlcNAc(b1-3)Gal(b1-4)GlcNAc(b1-2)Man(a1-6)]Man(b1-4)GlcNAc(b1-4)GlcNAc", "method_in_brief": "as §1"}, "[34]": {"molecular_target": "Neu5Gc(a2-3)Gal(b1-4)[Fuc(a1-3)]GlcNAc", "method_in_brief": "as §1"}, "[35]": {"molecular_target": "Neu5Gc(a2-6)Gal(b1-4)GlcNAc", "method_in_brief": "as §1"}, "[36]": {"molecular_target": "Neu5Gc(a2-6)GalNAc", "method_in_brief": "as §1"}, "[37]": {"molecular_target": "Neu5Gc(a2-8)Neu5Ac(a2-3)Gal(b1-4)GlcNAc", "method_in_brief": "as §1"}, "[38]": {"molecular_target": "Neu5Gc(a2-8)Neu5Gc(a2-3)Gal(b1-4)GlcNAc", "method_in_brief": "as §1"}, "[39]": {"molecular_target": "Neu5Gc(a2-8)Neu5Gc(a2-3)Gal(b1-4)GlcNAc(b1-3)Gal(b1-4)GlcNAc", "method_in_brief": "as §1"}, "[40]": {"molecular_target": "Neu5Gc(a2-8)Neu5Gc(a2-6)Gal(b1-4)GlcNAc", "method_in_brief": "as §1"}, "[41]": {"molecular_target": "Neu5Gc(b2-6)Gal(b1-4)GlcNAc", "method_in_brief": "as §1"}}, "note": "This is one part of the list.", "data": [{"binder": "B1", "values": [{"measurement": "glycan array binding signal (z-score)", "setting": "[1]", "value": -0.137}, {"measurement": "glycan array binding signal (z-score)", "setting": "[2]", "value": -0.151}, {"measurement": "glycan array binding signal (z-score)", "setting": "[3]", "value": -0.129}, {"measurement": "glycan array binding signal (z-score)", "setting": "[4]", "value": -0.14}, {"measurement": "glycan array binding signal (z-score)", "setting": "[5]", "value": -0.163}, {"measurement": "glycan array binding signal (z-score)", "setting": "[6]", "value": -0.149}, {"measurement": "glycan array binding signal (z-score)", "setting": "[7]", "value": -0.141}, {"measurement": "glycan array binding signal (z-score)", "setting": "[8]", "value": -0.143}, {"measurement": "glycan array binding signal (z-score)", "setting": "[9]", "value": -0.129}, {"measurement": "glycan array binding signal (z-score)", "setting": "[10]", "value": -0.151}, {"measurement": "glycan array binding signal (z-score)", "setting": "[11]", "value": -0.144}, {"measurement": "glycan array binding signal (z-score)", "setting": "[12]", "value": -0.14}, {"measurement": "glycan array binding signal (z-score)", "setting": "[13]", "value": -0.16}, {"measurement": "glycan array binding signal (z-score)", "setting": "[14]", "value": -0.155}, {"measurement": "glycan array binding signal (z-score)", "setting": "[15]", "value": -0.149}, {"measurement": "glycan array binding signal (z-score)", "setting": "[16]", "value": -0.15}, {"measurement": "glycan array binding signal (z-score)", "setting": "[17]", "value": -0.156}, {"measurement": "glycan array binding signal (z-score)", "setting": "[18]", "value": -0.151}, {"measurement": "glycan array binding signal (z-score)", "setting": "[19]", "value": -0.128}, {"measurement": "glycan array binding signal (z-score)", "setting": "[20]", "value": -0.139}, {"measurement": "glycan array binding signal (z-score)", "setting": "[21]", "value": -0.141}, {"measurement": "glycan array binding signal (z-score)", "setting": "[22]", "value": -0.15}, {"measurement": "glycan array binding signal (z-score)", "setting": "[23]", "value": -0.207}, {"measurement": "glycan array binding signal (z-score)", "setting": "[24]", "value": -0.154}, {"measurement": "glycan array binding signal (z-score)", "setting": "[25]", "value": -0.149}, {"measurement": "glycan array binding signal (z-score)", "setting": "[26]", "value": -0.145}, {"measurement": "glycan array binding signal (z-score)", "setting": "[27]", "value": -0.129}, {"measurement": "glycan array binding signal (z-score)", "setting": "[28]", "value": -0.156}, {"measurement": "glycan array binding signal (z-score)", "setting": "[29]", "value": -0.157}, {"measurement": "glycan array binding signal (z-score)", "setting": "[30]", "value": -0.149}, {"measurement": "glycan array binding signal (z-score)", "setting": "[31]", "value": -0.148}, {"measurement": "glycan array binding signal (z-score)", "setting": "[32]", "value": -0.151}, {"measurement": "glycan array binding signal (z-score)", "setting": "[33]", "value": -0.13}, {"measurement": "glycan array binding signal (z-score)", "setting": "[34]", "value": -0.155}, {"measurement": "glycan array binding signal (z-score)", "setting": "[35]", "value": -0.145}, {"measurement": "glycan array binding signal (z-score)", "setting": "[36]", "value": -0.147}, {"measurement": "glycan array binding signal (z-score)", "setting": "[37]", "value": -0.145}, {"measurement": "glycan array binding signal (z-score)", "setting": "[38]", "value": -0.149}, {"measurement": "glycan array binding signal (z-score)", "setting": "[39]", "value": -0.146}, {"measurement": "glycan array binding signal (z-score)", "setting": "[40]", "value": -0.14}, {"measurement": "glycan array binding signal (z-score)", "setting": "[41]", "value": -0.147}]}]}
